# According to PubChem BioAssay AID894 (National Center for Advancing Translational Sciences (NCATS), 2007):
# “And” between values parts separate entries of the source, which are not always exact repeats. Identical values can stand only once. The whole screen tested about 150,000 compounds, of which about 6,500 (4.3%) were called active. The shares of active, inactive and inconclusive entries below differ from those in the screen. Calls follow the shape of the dose curve; as a rule, active = well fitted inhibition curve with a large enough effect (not every such curve was filed as active); inconclusive = small, poorly fitted or top-dose-only effect, or another doubt; inactive = no such curve, though single readings can be large or run the other way. Potencies of inconclusive entries are doubtful fits and often do not repeat.
# Molecular target: 15-hydroxyprostaglandin dehydrogenase [NAD(+)] (Homo sapiens) (UniProt P15428)
# UniProt P15428, sequence (P15428 whole entry, looked up): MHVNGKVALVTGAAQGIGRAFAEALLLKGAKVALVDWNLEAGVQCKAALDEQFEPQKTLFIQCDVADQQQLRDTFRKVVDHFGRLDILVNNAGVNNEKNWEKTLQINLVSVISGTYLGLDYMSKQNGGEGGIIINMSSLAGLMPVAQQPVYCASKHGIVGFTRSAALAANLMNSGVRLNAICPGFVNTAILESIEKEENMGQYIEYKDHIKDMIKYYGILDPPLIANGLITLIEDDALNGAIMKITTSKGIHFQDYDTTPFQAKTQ
# Experiment: qHTS Assay for Inhibitors of HPGD (15-Hydroxyprostaglandin Dehydrogenase)
# Details: purified HPGD, NADH fluorescence kinetic, PGE2 substrate; activity change, negative = inhibition: hits give low values
# Method in brief: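 20 nM HPGD preincubated 15 min at room temperature with compound in 50 mM Tris-HCl pH 8, 0.01% Tween 20. Started with 1 mM NAD+ and 30 uM prostaglandin E2; NADH fluorescence (360/450 nm) read 5 times over 30-s intervals, last minus first.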
# % is scaled to controls: 0 for no effect and ±100 for the full control effect; potency is read from the fitted curve at half-maximal effect; tags tell the direction and shape of the fitted curve.
Compound,Potency,"activity change, negative = inhibition"
CC(C)Cc1csc(NC(=O)c2ccc(F)cc2)c1C(=O)O,active: 25.1 µM,
Cc1nc2ccc(N=NC3=C(O)CCCC3=O)cc2s1,,inactive: -4.95%
CC1CCCC(C)N1C(=O)CSc1nnc(C2CCCCC2)o1 (configuration not stated),"inconclusive: 15.8 µM [inhibitor, partial curve]",
Cc1nnc(NC(=O)c2oc3c(ccc4ccccc43)c2C)s1,"inconclusive: 35.5 µM [inhibitor, partial curve]",
O=c1cc(O)c2sc3nc(-c4cccnc4)cc(C(F)(F)F)c3c2[nH]1,"inconclusive: 14.1 µM [inhibitor, partial curve]",
O/N=C/c1ccccc1OCc1ccccc1Cl,"inconclusive: 25.1 µM [inhibitor, partial curve]",
Cc1ccc(O)c(-c2cc(-c3cccc(F)c3)n[nH]2)c1,active: 15.8 µM,
O=C(COC(=O)c1ccco1)c1ccc2ccccc2c1,"inconclusive: 28.2 µM [inhibitor, partial curve]",
Cc1cc(C)n2cc(CSc3nc4ccccc4s3)nc2n1,"inconclusive: 15.8 µM [inhibitor, partial curve, poor fit]",
CC(C)Cn1[nH]c2c3c(ccc2c1=O)C(=O)c1ccccc1C3=O,active: 2 µM,
CCOC(=O)C(C)Sc1nc(-c2ccc(OC)cc2)nc2c1c(=O)n(C)c(=O)n2C (configuration not stated),"inconclusive: 14.1 µM [inhibitor, partial curve]",
Cc1cc(=O)n2nc(-c3ccccc3)sc2c1C#N,"inconclusive: 31.6 µM [inhibitor, partial curve]",
S=c1[nH]nc(-c2ccccc2)n1Cc1ccccc1,"inconclusive: 28.2 µM [inhibitor, partial curve]",
Cc1ccc(SCCC(=O)N2CCC(C)CC2)cc1,active: 7.94 µM,
CCCC(=O)Nc1ccc(C(=O)NCC2CCCO2)cc1 (configuration not stated),active: 11.2 µM,
Cc1nnc(NS(=O)(=O)c2ccc(N)cc2)s1,,inactive: -3.68% [middle of 4 runs]
C=CCNc1oc(-c2ccc(OC)cc2)nc1C#N,"inconclusive: 28.2 µM [inhibitor, partial curve]",
Cn1c(=O)oc2cc(S(=O)(=O)N3CCCC(C(=O)NCC4COc5ccccc5O4)C3)ccc21 (configuration not stated),"inconclusive: 25.1 µM [inhibitor, partial curve]",
COc1ccc(OC)c(S(=O)(=O)Nc2ccc(O)c(Sc3ncn[nH]3)c2)c1,active: 22.4 µM,
N=C(N)S/C=C\C(=O)O,active: 35.5 µM,
Cc1nc2nc(-c3ccc(Cl)cc3)cn2nc1C,"inconclusive: 3.16 µM [inhibitor, partial curve]",
O=C(Oc1ccc2ccc(OC(=O)N3CCCCCC3)cc2c1)N1CCCCCC1,,inactive: -9.22%
Cc1cc(OCc2nc(N)nc(N)c2-c2ccc(Cl)c(Cl)c2)ccc1[N+](=O)[O-],,inactive: -1.42%
COc1ccccc1CNC(=O)c1ccc(SC)cc1OC,active: 22.4 µM,

Compound,Potency,"activity change, negative = inhibition"
O=C(O)C1C2C=CC(C2)C1C(=O)Nc1ccc(C(=O)N2CCCCC2)cc1 (configuration not stated),active: 1.26 µM,
CCOc1ccccc1-c1c2cc(O)c(=O)cc-2oc2cc(O)c(O)cc12,active: 17.8 µM,
O=C(CC(SCc1ccco1)c1ccc(O)cc1)c1cccs1 (configuration not stated),,inactive: -13.2%
COc1ccc(C(=O)Nc2ccc(NC(=O)c3ccco3)c(Cl)c2)cc1OC,"inconclusive: 28.2 µM [inhibitor, partial curve]",
COc1ccc(-c2nn3cnnc3s2)cc1OC,"inconclusive: 22.4 µM [inhibitor, partial curve]",
CCCCSc1nnc2[nH]c(=O)cc(N)n12,active: 15.8 µM,
CC1CC1C(=O)Nc1nc(-c2ccccn2)cs1 (configuration not stated),active: 14.1 µM,
O=C(Nc1ccc(C(=O)N2CCCCC2)cc1)c1ccc(Br)cc1,active: 0.631 µM,
CNC(=S)N/N=C/c1cn(Cc2ccc(C)cc2)c2ccccc12,"inconclusive: 22.4 µM [inhibitor, partial curve]",
O=C(CCC(=O)c1ccc(Cl)cc1)OCC(=O)c1ccccc1,"inconclusive: 17.8 µM [inhibitor, partial curve]",
CCN1C(=O)c2cccc3c(S(=O)(=O)Nc4nc(C)cs4)ccc1c23,,inactive: -21.2%
CC1(C)CC(n2c(NCCO)nc3c(c2=O)C2(CCCC2)Cc2ccccc2-3)CCO1 (configuration not stated),"inconclusive: 22.4 µM [inhibitor, partial curve]",
CCOC(=O)c1sc(NC(=O)c2sccc2C)cc1C,"inconclusive: 31.6 µM [inhibitor, partial curve]",
CCN1CCN(c2cc3c(cc2F)c(=O)c(C(=O)O)cn3C2CC2)CC1,"inconclusive: 10 µM [inhibitor, partial curve] and inconclusive: 28.2 µM [inhibitor, partial curve]",
CCN(CC)c1ccc(N=Cc2c(C)[nH]c3ccccc23)cc1,"inconclusive: 39.8 µM [inhibitor, partial curve, poor fit]",
CCc1nnc(NS(=O)(=O)c2ccc(N/C=C\C(=O)c3cccc4ccccc34)cc2)s1,"inconclusive: 25.1 µM [inhibitor, partial curve]",
CN(C)C(=O)COC(=O)c1cc(Cl)cc(Cl)c1N,"inconclusive: 28.2 µM [inhibitor, partial curve]",
COc1cccc(/C=N/NC(=O)CSc2ccccc2C)c1O,,inactive: -16.2%
Cc1cc(C)c(C#N)c(SCC(=O)C(C)(C)C)n1,active: 31.6 µM,
Cc1cc2nc(-c3ccc(SCC(=O)N4CCc5ccccc54)nc3)[nH]c2cc1C,"inconclusive: 11.2 µM [inhibitor, partial curve]",
CCOC(=O)N1CCN(C(=O)Nc2ccc3nc(-c4ccccn4)c(-c4ccccn4)nc3c2)CC1,"inconclusive: 25.1 µM [inhibitor, partial curve]",
C#CCCCCCCCCCCCc1ccco1,,inactive: -23.1%
COC(=O)c1cc(C#N)c(NCc2ccc(Cl)cc2Cl)nc1C,"inconclusive: 28.2 µM [inhibitor, partial curve]",
